# ± gives the standard deviation of the averaged measurements. This is one part of the list.
# System: PfAP2-LT AP2 domain (GST-tagged)
# Assay: gcPBM binding intensity (ln(normalized median fluorescence intensity)); higher = stronger DNA binding
# Procedure, shortened: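 Alexa488 anti-GST antibody, scanned at 488 nm, detected GST-tagged P. falciparum DNA-binding domains that had been expressed in E. coli and incubated for 1 h on an Agilent 4 × 180k array. The array carried primer-extended double-stranded 36-bp intergenic genomic probes and negative controls. Binding intensity is the highest Masliner-normalised natural-log median intensity across replicate spots of either orientation of each probe.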
row,Sequence,gcPBM binding intensity (ln)
1,TATATTTTTATGTGTGTGCACAAAATAACAAAATAT [GTGCAC_site9596],9.28 ± 0.33
2,ATTATTTTTTTTGAAGTGCAATATTATTTTTAATCA,8.46 ± 0.45
3,GTTAAGTGGATATATACACACATATGCAATACATGA [CACACA_site7427],9.18 ± 0.35
4,CAATTCAATATATATACACACACACTATTAATAATT [CACACA_site9256],9.54 ± 0.25
5,ATGTGGATTTTATAATGTACATATGATATTATTTTG [XGTACX_site7930],8.9 ± 0.27
6,TATACTACCCAGAGCTGTACAAAATAATAATAAGTT [XGTACX_site1045],8.94 ± 0.35
7,ATGGTTATATTTGAAGTGCAAAAAAAAATATATGTA,8.73 ± 0.47
8,CAAACCCACCAACACACACACACAAAAATGATTAAA [CACACA_site2432],9.88 ± 0.3
9,TACTTTTTTATTTGGTGTACAAATAAAATCATAATG [XGTACX_site1802],8.62 ± 0.42
10,ATATATTTTGATTGCACACAGAATTTAAATCATGAT [CACACA_site2343],9.03 ± 0.26
11,GAAGATATATAATAATTCATAGTTTTTTAATTTAAA [TGCATGCA_negctrl_site295],8.23 ± 0.59
12,CTCTTTTCTTATAATACACACAGTAATATTTATATA [CACACA_site6824],8.82 ± 0.42
13,AATAAAAAAAATTTCTGTACATATATTTATTATATA [XGTACX_site1883],8.36 ± 0.42
14,CCTATCCAGACATATACACACATATCTATTTATATA [CACACA_site5001],9.04 ± 0.4
15,TATAAAAAATAATACACACACATGGCGACAAAATAA [CACACA_site2420],9.54 ± 0.29
16,TTTACTTTCCCAAGTTGTACTGCTTCTAAGCTTTTT [XGTACX_site2708],8.77 ± 0.48
17,AATGATAATATTTCCTTCTTTTTTACTTCTTTCTTT [CACACA_negctrl_site776],8.65 ± 0.57
18,AAAATGGTTTATAAATGTACATATATTATATATAAC [XGTACX_site7959],8.79 ± 0.42
19,AAAAAAAATTTCTTCTGTACGCATAAATTTTTATTA [XGTACX_site8721],8.37 ± 0.43

row,Sequence,gcPBM binding intensity (ln)
1,TATTTAATTTTTAAATGTACATATAAAATAATATAT [XGTACX_site2422],8.24 ± 0.41
2,TTTTTCAGAAAAGAAACACACATATATATATTTATA [CACACA_site2372],8.56 ± 0.43
3,CATATAAAATAATTCACACAAATATACAAATACCCA [CACACA_site5340],9.04 ± 0.36
4,CTTTATAAAATAAGAGTGCGTTATATTGAATTGTAT [GTGCAC_site9390],8.62 ± 0.39
5,ATATAAGATTTAAGAAGTACAATTATACAGTAGATC [XGTACX_site7501],8.85 ± 0.47
6,ATATAACATAGACACACACACATATAAATATATTAT [CACACA_site7865],9.67 ± 0.14
7,TTTTTATAACGTAATAAATAAAACGTCTATACTATA [XGTACX_negctrl_site176],8.61 ± 0.45
8,AAAAATATAATATAATGTACACAAAAAAAAAAATTC [XGTACX_site3657],8.83 ± 0.44
9,AATTAGACATAATATACACACATATATTATAGATAT [CACACA_site7297],8.99 ± 0.36
10,TAAAGATATTATTTTTGTACATATTGATATAATGAA [XGTACX_site6571],8.41 ± 0.4
11,TATATTATTATAATTTGTACATATCTAATTATATAT [XGTACX_site5342],8.78 ± 0.49
12,GAATAAATTAAAAATGCACACTTTGATGGGTACATT [CACACA_site5220],8.72 ± 0.42
13,ACGTTTTATAATTAATGTACAAATATTAAAATTGCA [XGTACX_site7869],8.57 ± 0.35
14,TATGAATGGTTAAGTACACACATATTAAGATATGTA [CACACA_site5852],8.86 ± 0.45
15,TCATATATTTATGTATGTACATATATATATAGATTA [XGTACX_site380],8.59 ± 0.3
16,TTATTTATTTTAAATTCACACATCGTGCTATTATAT [CACACA_site5003],9.04 ± 0.68
17,TATATTTGCAGTAATAATAATTATTATAAAAGATAA [XGTACX_negctrl_site547],8.53 ± 0.54
18,TTACATGTAAAAGGTACACACATTATGTATACAAAT [CACACA_site1117],9.24 ± 0.4
19,TTTTTTTTTTTTTTTTGTCCGTACTGCTTTGTGTTT [XGTACX_site3687],8.84 ± 0.52

row,Sequence,gcPBM binding intensity (ln)
1,ATGATAAACATGGATACACACATATAGATTGCATAT [CACACA_site6843],9.21 ± 0.41
2,TTCATCTTAAAATTGGGTACATAACACAAAGTATAA [XGTACX_site1894],8.45 ± 0.45
3,ATATATATTAACAATACACACGTGTATACCTTATTG [CACACA_site5258],9.35 ± 0.39
4,TTATTAAATTCATAAGTGCATTTATGATTAATTTTT [GTGCAC_site9749],8.55 ± 0.48
5,ATTTCTCTATCGTAATGTACATAAAAAAGAAAAACA [XGTACX_site6374],8.56 ± 0.47
6,AAACTTAATATCGGTACACACACAAGATAAGAATTA [CACACA_site8200],9.41 ± 0.41
7,AATACATACAGACACACACACACATATATATATATA [CACACA_site3558],10.36 ± 0.014
8,CACATACACCCATACACACACATATATATTAAGATA [CACACA_site4459],9.57 ± 0.38
9,CTATAAATATTTTATTGTACACACTTTTTATGAATG [XGTACX_site6711],8.92 ± 0.38
10,ATATATATATAGTGCACACTTAAGAATATAAAGAGG [CACACA_site1151],9.12 ± 0.4
11,AAAATTTTTAGTTATACACACAACATAGAAAATATT [CACACA_site328],8.85 ± 0.43
12,TTTGATCGATGGATTTAACACACAAAAAAAAAAAAA [CACACA_site9279],8.72 ± 0.46
13,CTTAATTTAATGAAATGTACATATAAAAATATTATA [XGTACX_site3303],8.41 ± 0.4
14,GTAAGAAACAGACACACACACATATATATATATATA [CACACA_site794],10.21 ± 0.064
15,GAACAGTTTGTTTAGTGTACTTTTTTTTTTTTTTTT [XGTACX_site8881],8.62 ± 0.34
16,AATAATTTTATCGGTACACACTGTATGCATAATATT [CACACA_site4364],9.15 ± 0.38
17,CCTATAAATGCATTCACACATATATATTTATATTAT [CACACA_site6086],8.9 ± 0.35
18,TCAAAAATAAAGATCACACATATATATATATATATA [CACACA_site4381],9.8 ± 0.11
19,ATGTACAAAATAAGCACACACAAAAAAAAAAAAAAT [CACACA_site2998],9.58 ± 0.48

# — the supplement of paper PMC11417369
